Laboratory results published in PubChem BioAssay AID1768 (National Center for Advancing Translational Sciences (NCATS), 2009).
Out of some 270,000 compounds screened, about 620 (0.23%) were called active. The inconclusive results got no clear call from the source; some entries with a clear call stand among them for comparison. Calls follow the shape of the dose curve; as a rule, active = well fitted inhibition curve with a large enough effect in the polarisation, with a control signal flat (not every such curve was filed as active); inconclusive = small, poorly fitted or top-dose-only effect, or effect the other way, or a change in a side signal; inactive = no such curve, though single readings can be large or run the other way; the % refers to the polarisation. Where the call is inconclusive, the potency comes from a doubtful curve fit. “Side channel” marks fits to a control or component signal instead of the main read-out.

Target: Menin (Homo sapiens) (UniProt O00255)
UniProt O00255, sequence (O00255 whole entry, looked up): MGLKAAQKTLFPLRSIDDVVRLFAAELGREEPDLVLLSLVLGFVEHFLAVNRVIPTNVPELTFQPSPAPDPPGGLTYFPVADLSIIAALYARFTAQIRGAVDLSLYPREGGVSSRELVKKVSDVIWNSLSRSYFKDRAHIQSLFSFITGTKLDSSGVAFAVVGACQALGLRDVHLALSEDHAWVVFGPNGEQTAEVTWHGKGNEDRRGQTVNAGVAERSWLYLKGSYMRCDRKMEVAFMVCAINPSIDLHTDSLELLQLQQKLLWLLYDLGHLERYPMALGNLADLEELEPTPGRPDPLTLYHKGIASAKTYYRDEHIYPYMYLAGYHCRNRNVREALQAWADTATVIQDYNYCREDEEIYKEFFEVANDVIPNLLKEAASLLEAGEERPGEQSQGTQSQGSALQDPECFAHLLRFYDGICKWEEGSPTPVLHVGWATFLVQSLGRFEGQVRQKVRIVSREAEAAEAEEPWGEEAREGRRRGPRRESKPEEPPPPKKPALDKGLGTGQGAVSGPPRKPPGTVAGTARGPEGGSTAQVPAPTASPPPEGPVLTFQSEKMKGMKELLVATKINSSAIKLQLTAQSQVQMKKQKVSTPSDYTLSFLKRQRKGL
Test: qHTS Assay for Inhibitors Targeting the Menin-MLL Interaction in MLL Related Leukemias: Competition With Texas Red Labeled MLL-derived Mutant Peptide; as to FP activity change, negative = inhibition: % of control where 0% means no effect
Conditions: fluorescence polarization; FP activity change, negative = inhibition: at 61.6 µM (top of the series)
Potency is read from the fitted curve at half-maximal effect; tags tell the direction and shape of the fitted curve or compound fluorescence and quenching.

SMILES	Potency	FP activity change, negative = inhibition
O=C(C1CCCN(Cc2ccc(Br)cc2)C1)N1CCCCC1 (stereo not drawn)	inconclusive: 39.8 µM [inhibitor, single point]	–
COc1ccc(NC(=O)Cn2nnc(C(=O)NCc3ccccc3OC)c2N)cc1Cl	inconclusive: 39.8 µM [inhibitor, single point]	–
COc1cc(-c2nnc(COC(=O)c3c4c(nc5ccccc35)CCCC4)o2)cc(OC)c1OC	inconclusive: 3.98 µM [inhibitor, full curve, poor fit]	–
O=S(N1CCCCCC1)C12CC3CC(CC(C3)C1)C2 (stereo not drawn)	inconclusive: 12.6 µM [fluorescent, side channel, partial curve]	–
Cc1ccc(C(=O)NC2CCN(C(=O)NCc3ccccc3)CC2)cc1	inconclusive: 0.708 µM [inhibitor, full curve, poor fit]	–
CCOC(=O)C(C)Sc1nc(-c2ccccc2)nc2ccc(F)cc12 (stereo not drawn)	inconclusive: 31.6 µM [fluorescent, side channel, single point]	–
COc1cccc(NC(=O)c2ccc3c(c2)CCCC3)c1	–	inactive: 20.5%
O=C1c2ccccc2-c2onc3ccc(N4CCCC4)c1c23	inconclusive: 20 µM [fluorescent, side channel, partial curve]	–
CCOC(=O)CC1(C)OCC(C[N+]2(C)CCCCC2)O1 (stereo not drawn)	–	inactive: 10.1%
CC(=O)Nc1ccc(S(=O)(=O)Nc2nc3ccccc3nc2Nc2ccc3ccccc3c2)cc1	inconclusive: 15.8 µM [quencher, side channel, partial curve]	–
O=C(CCCCCNC(=S)Nc1ccc(Cl)cc1)C[N+](=O)[O-]	inconclusive: 3.55 µM [quencher, side channel, full curve, poor fit]	–
COc1ccc(CCNC(=O)c2ccc3nc(-c4ccco4)c(-c4ccco4)nc3c2)cc1OC	inconclusive: 10 µM [quencher, side channel, partial curve]	–
O=C(CNC(=O)c1cccnc1)N=Nc1c(O)[nH]c2c(Br)cc(Br)cc12	inconclusive: 31.6 µM [quencher, side channel, single point]	–
Cc1cc(C)c(S(=O)(=O)N(CC(=O)N2CCCC2)C2CCCCC2)c(C)c1	inconclusive: 7.94 µM [fluorescent, side channel, full curve]	–
COc1ccc(OC2C=CC(C#Cc3ccc(Br)cc3)OC2CO)c(C(C)(C)C)c1 (stereo not drawn)	–	inactive: -29.5% [at 11.7 µM]
CC(C)CC(=O)Nc1ccccc1N1CCN(C(=O)c2ccccc2)CC1	inconclusive: 39.8 µM [inhibitor, single point]	–
CC(NCCC(c1ccccc1)c1ccccc1)c1ccccc1 (stereo not drawn)	inconclusive: 3.55 µM [fluorescent, side channel, partial curve]	–
CCc1ccc(NC(=O)C2CCN(S(=O)(=O)c3ccc4c(c3)CC(C)N4C(C)=O)CC2)cc1 (stereo not drawn)	inconclusive: 7.94 µM [quencher, side channel, full curve]	–
COc1ccc(Nc2cc(C(=O)NCCCN3CCN(C)CC3)c3ccccc3n2)c(OC)c1	inconclusive: 39.8 µM [quencher, side channel, single point]	–
CCN(CC)S(=O)(=O)c1cccc(NC(=O)/C=C/c2ccc([N+](=O)[O-])cc2)c1	inconclusive: 15.8 µM [quencher, side channel, partial curve]	–

SMILES	Potency	FP activity change, negative = inhibition
CCOC(=O)C(C)Sc1nc(-c2ccco2)cc(C(F)(F)F)c1C#N (stereo not drawn)	inconclusive: 31.6 µM [quencher, side channel, single point]	–
COc1ccccc1OCC(=O)NCc1nc(-c2ccccc2)no1	inconclusive: 8.91 µM [fluorescent, side channel, partial curve]	–
CC(C)S(=O)(=O)C1=NSC2=NC(=O)/C(=C\c3ccc(-c4ccccc4)o3)C(=N)N21	inconclusive: 8.91 µM [quencher, side channel, partial curve]	–
O=C(O)c1ccc(COc2ccc3ccccc3c2/C=C2/NC(=O)N(Cc3ccc(F)cc3)C2=O)cc1	inconclusive: 12.6 µM [quencher, side channel, partial curve]	–
COc1ccc(OC)c(Nc2nc(-c3ccc(O)c(O)c3)cs2)c1	inconclusive: 14.1 µM [quencher, side channel, partial curve]	–
CC(C)C[C@H](NC(=O)c1nc[nH]c1C(=O)NC1CCN(C(=O)OC(C)(C)C)CC1)C(=O)OCc1ccccc1	inconclusive: 1.58 µM [fluorescent, side channel, full curve]	–
FC(F)(F)c1ccccc1-c1ccc2ncnc(NCc3cccs3)c2c1	–	inactive: 15.8%
CC(OC(=O)c1ccc(NS(=O)(=O)c2ccc3[nH]c(=O)[nH]c3c2)cc1)C(=O)Nc1ccc(Cl)cc1 (stereo not drawn)	inconclusive: 15.8 µM [quencher, side channel, partial curve]	–
COc1ccc(C)cc1S(=O)(=O)NCCC1=CCCCC1	inconclusive: 35.5 µM [inhibitor, partial curve]	–
CCOc1cc(/C=N/NC(=O)c2cc(-c3ccccc3)nc3ccccc23)ccc1O	inconclusive: 8.91 µM [quencher, side channel, partial curve]	–
COc1ccc(Br)cc1C1C2C=CCCC2(C)C(=O)N1Cc1ccccc1 (stereo not drawn)	–	inactive: -29.7%
N#C/C(=C(/O)c1ccc(F)cc1)c1nc2ccccc2s1	inconclusive: 39.8 µM [quencher, side channel, single point]	–
CCOc1ccc(NC(=O)Cn2cc(C(=O)C3CC3)c3ccccc32)cc1	inconclusive: 39.8 µM [fluorescent, single point]	–
Cc1ccc(/C=N/N(C)C2=NS(=O)(=O)c3ccccc32)o1	inconclusive: 39.8 µM [fluorescent, side channel, single point]	–
COc1ccccc1NC(=O)CSc1nnc(Cc2ccccc2)o1	inconclusive: 28.2 µM [quencher, side channel, single point]	–
O=C(Nc1nnc(CSCc2ccc(F)cc2)s1)c1ccc([N+](=O)[O-])cc1	inconclusive: 31.6 µM [quencher, side channel, single point]	–
COc1ccc([C@H]2c3cc(OC)c(OC)cc3C[C@@H](C)[C@@H]2C)cc1OC	–	inactive: -0.903%
O=C(Nc1ccc(Br)cc1)C(c1ccccc1)c1ccccc1	inconclusive: 28.2 µM [inhibitor, single point]	–
O=S(=O)(c1ccccc1)N1CCN(c2cc(-c3ccccc3)nc3ncnn23)CC1	–	inactive: 2.35%
CC1(C)CC(=O)C2=C(C1)c1c(ccc3ccccc13)NC2c1ccc(C(=O)O)cc1 (stereo not drawn)	inconclusive: 12.6 µM [quencher, side channel, partial curve]	–

SMILES	Potency	FP activity change, negative = inhibition
CCN1C(=O)c2ccc(C(=O)NCc3ccccc3)cc2C1=O	inconclusive: 5.01 µM [inhibitor, full curve, poor fit]	–
COc1ccc(NC(=O)N2CCc3nc(-c4ccc(OC)cc4C)c4c(c3C2)CO[C@@H](c2ccccc2)C4)cc1	–	inactive: -21.2% [at 11.7 µM]
COc1ccc(C(=O)/C=C/Nc2cccc(O)c2)cc1	inconclusive: 17.8 µM [quencher, side channel, single point]	–
Cc1c(Nc2c3c(c(C#N)c4nc5ccccc5n24)CCC3)c(=O)n(-c2ccccc2)n1C	–	inactive: -13%
O=c1c2ccccc2sn1-c1ccc(S(=O)(=O)N2CCCC2)cc1	inconclusive: 12.6 µM [quencher, side channel, partial curve]	–
Oc1ccccc1CNc1ncc(Br)cc1Br	inconclusive: 28.2 µM [quencher, side channel, single point]	–
O=C(C1CCC1)N1CCN(Cc2ccccc2)CC1	–	inactive: -0.221%
O=C(NCc1cccc2ccccc12)[C@H]1C[C@@H]1[C@H](NP(=O)(c1ccccc1)c1ccccc1)c1ccccc1	–	inactive: -3.05%
CC(C)(C)c1cc2ncnc(N3CCCCC3)c2s1	inconclusive: 12.6 µM [fluorescent, side channel, partial curve]	–
COc1ccc(-c2nn(-c3ccccc3)cc2C(=O)Nc2nccs2)cc1	inconclusive: 3.16 µM [quencher, side channel, full curve]	–
CCOC(=O)c1c(-c2ccc(OC)cc2)oc2cc(Br)c(O)cc12	inconclusive: 25.1 µM [quencher, side channel, partial curve]	–
Cc1nc(NC(=O)/C=C/c2ccco2)sc1C	inconclusive: 39.8 µM [inhibitor, single point]	–
Nc1ccc2nc(SCc3cccc(F)c3)sc2c1	inconclusive: 14.1 µM [quencher, side channel, partial curve]	–
NC(=S)N=Nc1c(O)n(Cc2ccccc2)c2ccccc12	inconclusive: 22.4 µM [quencher, side channel, single point]	–
CCSc1nnc(NC(=O)c2cc(C)oc2C)s1	inconclusive: 31.6 µM [inhibitor, single point]	–
Cc1cccc(NC(=O)C(=O)NCCc2c[nH]c3ccccc23)c1C	inconclusive: 35.5 µM [quencher, side channel, single point]	–
COc1ccc(N2C(=O)CS/C2=C\[N+](=O)[O-])cc1	inconclusive: 28.2 µM [quencher, side channel, partial curve]	–
Nc1cc(=O)[nH]c(SCc2ccccc2Cl)n1	inconclusive: 1.78 µM [inhibitor, full curve]	–
